Test results: the supplement of paper PMC12217912
The other results are listed elsewhere or left out. Sequences were assembled here from the parent chain. Values near 0.05 are background.

B1: TEV protease; numbered along this chain (parent)
chain: MGESLFKGPRDYNPISSSICHLTNESDGHTTSLYGIGFGPFIITNKHLFRRNNGTLVVQSLHGVFKVKDTTTLQQHLVDGRDMIIIRMPKDFPPFPQKLKFREPQREERICLVTTNFQTKSMSSMVSDTSCTFPSGDGIFWKHWIQTKDGQCGSPLVSTRDGFIVGIHSASNFTNTNNYFTSVPKNFMELLTNQEAQQWVSGWRLNADSVLWGGHKVFMVKPEEPFQPVKEATQL

Variants of: B1
Assay: raw area under fraction-flipped curve 0-4 h after induction (AUC4h, not background-subtracted), DNA-recorder readout of cleavage of the substrate (dimensionless); higher = more cleavage of the substrate by the protease variant
Conditions: temperature: 34 °C; time window: 0-4 h after rhamnose induction
Description: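 In vivo DNA recorder in E. coli TOP10(DE3) ΔrhaA at 34 °C. Each TEVp single-site mutant (parent TEVp 0) is paired with a single-site variant of the 7-mer TEVs (canonical ENLYFQ|S). The substrate sits between flexible linkers in a Bxb1-sfGFP-TEVs-SsrA fusion, so cleavage stabilises Bxb1 and speeds flipping of a recombination array, read by NGS. The value is the raw area under the fraction-flipped curve over 0-4 h after rhamnose induction (AUC4h), with ≥20 reads per time point. It is not background-subtracted; inactive controls average about 0.047.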
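Further: Bxb1 expression induced with 0.2% (w/v) L-rhamnose at OD600 near 0.5, cultures sampled hourly, flipped fraction per protease–substrate barcode pair counted by paired-end Illumina sequencing.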

Variant	area with substrate ENAYFQS	area with substrate ENCYFQS	area with substrate ENDYFQS	area with substrate ENFYFQS	area with substrate ENGYFQS	area with substrate ENHYFQS	area with substrate ENIYFQS	area with substrate ENKYFQS	area with substrate ENMYFQS	area with substrate ENQYFQS	area with substrate ENRYFQS	area with substrate ENSYFQS	area with substrate ENTYFQS	area with substrate ENVYFQS	area with substrate ENEYFQS	area with substrate ENPYFQS	area with substrate ENWYFQS	area with substrate ENNYFQS	area with substrate ENYYFQS
E103T	0.0683	0.062	0.0699	0.0693	0.0574	0.0715	0.0937	0.0571	0.0636	0.0603	0.051	0.0418	0.0484	0.0725	–	–	–	–	–
T129L	0.0715	0.0337	0.0519	–	0.049	0.0944	0.1	0.0644	–	0.0331	0.0601	0.0704	0.0419	0.0883	0.0575	0.0549	0.0086	–	–
D79M	0.062	–	0.0501	–	0.0653	–	0.092	–	–	0.0603	0.0345	0.0591	0.0657	0.0699	0.0484	–	0.0966	–	–
D79W	0.0737	0.0551	0.0618	0.0627	–	0.0528	0.0962	0.0816	–	0.0681	–	0.0675	0.0686	0.0775	0.0633	–	0.0563	0.0433	–
D79T	0.0551	–	0.0579	0.0673	–	0.0514	–	–	–	–	0.0563	0.0656	–	0.0816	0.0535	–	–	–	0.0448
D79F	0.0489	–	–	0.0643	–	–	0.0935	–	0.0657	0.0566	0.0643	–	0.0481	0.0731	0.0429	–	–	–	–
D79S	0.0655	–	–	0.0549	–	0.0895	–	–	0.101	0.0615	0.0509	0.0611	0.0569	0.0713	0.0582	–	0.0538	0.0725	0.0697
D79K	0.0613	0.0502	–	0.0724	0.0671	–	0.101	0.063	0.0595	0.0626	0.0604	0.0637	0.0775	–	0.0604	0.0364	–	0.0705	0.0568
F95H	0.0383	0.0615	–	–	0.0577	0.0564	0.0891	0.0535	0.0867	0.0512	0.0585	0.0697	0.0543	0.0886	0.064	0.0602	–	0.0613	–
F101V	0.0706	–	–	–	–	–	–	–	0.0625	–	–	0.0535	0.0412	–	0.056	–	–	–	0.049
K100G	0.0766	0.0596	–	0.0568	0.0476	0.0554	0.104	0.0611	–	0.0521	0.044	0.0553	–	0.069	0.073	0.0542	0.0603	0.0599	–
S127I	0.0666	0.0466	0.0488	0.0599	0.0624	0.0489	–	0.0491	–	0.0547	0.0645	0.0576	0.0524	0.0959	–	0.0615	0.0081	0.0583	0.0464
S127L	0.0636	–	–	0.062	0.0753	0.0553	–	–	0.0897	–	0.0624	–	–	0.0797	–	–	–	0.0717	0.0758
R109L	0.0611	0.0744	0.0575	0.0782	–	–	0.0949	0.0664	0.0751	0.061	0.0597	0.0819	0.0447	–	0.0511	–	–	0.0617	0.0645
S123N	0.0674	–	0.0706	0.0575	0.0638	0.0614	–	–	0.0753	0.0612	0.0762	0.0626	0.048	0.0959	0.0688	–	–	0.0631	–
K90H	0.063	0.0588	0.0946	0.0744	0.0798	0.0671	0.104	0.0664	0.0681	–	0.0691	0.0597	–	0.109	0.0628	0.0564	0.056	–	–
K90G	0.0551	0.0828	0.0664	–	–	0.0469	–	–	0.0921	0.0552	0.0504	0.0635	0.0808	0.0867	0.0672	0.0659	0.0589	–	–
K90V	0.0683	0.0642	0.0733	–	0.0638	–	–	–	0.0704	0.0639	–	0.0611	–	–	0.0633	0.0622	–	0.0732	–
M122V	0.0599	–	0.0626	–	0.0717	–	–	0.0676	0.0556	0.0591	–	0.0682	0.0612	–	0.0649	0.0655	–	0.0652	–
M122I	0.0622	–	0.0592	–	0.0615	–	0.0909	0.0533	–	0.0543	–	0.0622	0.14	0.069	0.0267	–	–	0.0681	–
H76W	0.104	0.0841	0.073	0.0685	–	0.0632	–	0.0507	0.05	0.0474	0.0483	0.051	0.0703	0.0674	0.0735	0.056	–	–	0.065
H76L	0.0674	–	0.0497	0.0773	0.0575	0.0573	–	0.0499	–	0.0654	0.0656	–	0.07	0.0683	0.0528	0.0739	–	–	–
H76M	0.0548	–	0.0619	0.0702	–	–	–	–	–	–	–	0.0624	0.0651	0.0794	–	–	–	–	–
Q105I	0.0576	–	0.0626	0.0622	0.0541	0.0624	0.13	–	0.069	0.058	–	0.0648	0.0525	–	0.0624	0.0633	0.0553	–	–
Q105L	0.0669	0.0698	0.0749	0.0415	0.0511	0.0712	–	–	0.0793	0.0596	0.0576	0.05	–	0.0695	0.0489	0.0689	–	–	–
Q118Y	0.0553	0.0737	0.0425	0.0685	–	–	–	–	0.0854	–	–	–	–	0.0897	0.0497	0.0549	–	0.0665	–
T114R	0.0538	0.06	0.065	0.0679	0.0888	0.0408	–	–	–	0.068	0.054	0.0515	0.0613	0.0742	–	0.0593	0.0698	0.0684	–
T132C	0.0597	0.0795	0.0567	0.0956	0.0739	–	0.111	–	–	0.0528	0.0576	0.0574	–	0.0692	–	0.0354	–	0.0544	–
